Measured values reported in paper PMC7901196.
No constants are given. Whether binding was seen depends on the method and setting. Binding seen in cells or lysates may run through a third protein. Some entries that bind do so weakly or less than the wild type. For part of these data: Where a sequence is shown, tags or fusion partners need not be part of it. Blank lines part the entries; values can stand above or below the molecule they belong to.

By UniProt entry, the sequences of proteins in these tests, tags left out.
UniProt A0A8C0NGY6: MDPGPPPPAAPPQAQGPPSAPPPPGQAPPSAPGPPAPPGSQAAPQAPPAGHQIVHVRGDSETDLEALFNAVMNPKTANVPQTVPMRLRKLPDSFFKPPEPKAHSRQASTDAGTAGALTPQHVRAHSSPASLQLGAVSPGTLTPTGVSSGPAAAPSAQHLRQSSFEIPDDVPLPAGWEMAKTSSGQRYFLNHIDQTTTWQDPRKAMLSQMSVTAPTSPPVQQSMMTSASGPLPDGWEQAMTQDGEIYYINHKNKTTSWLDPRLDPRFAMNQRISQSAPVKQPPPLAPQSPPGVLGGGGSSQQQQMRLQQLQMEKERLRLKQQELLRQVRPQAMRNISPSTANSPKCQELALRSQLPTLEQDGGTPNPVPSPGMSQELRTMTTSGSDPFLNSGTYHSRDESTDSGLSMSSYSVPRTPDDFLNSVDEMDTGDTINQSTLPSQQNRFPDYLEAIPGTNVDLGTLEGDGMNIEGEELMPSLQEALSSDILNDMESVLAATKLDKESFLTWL
UniProt P46937: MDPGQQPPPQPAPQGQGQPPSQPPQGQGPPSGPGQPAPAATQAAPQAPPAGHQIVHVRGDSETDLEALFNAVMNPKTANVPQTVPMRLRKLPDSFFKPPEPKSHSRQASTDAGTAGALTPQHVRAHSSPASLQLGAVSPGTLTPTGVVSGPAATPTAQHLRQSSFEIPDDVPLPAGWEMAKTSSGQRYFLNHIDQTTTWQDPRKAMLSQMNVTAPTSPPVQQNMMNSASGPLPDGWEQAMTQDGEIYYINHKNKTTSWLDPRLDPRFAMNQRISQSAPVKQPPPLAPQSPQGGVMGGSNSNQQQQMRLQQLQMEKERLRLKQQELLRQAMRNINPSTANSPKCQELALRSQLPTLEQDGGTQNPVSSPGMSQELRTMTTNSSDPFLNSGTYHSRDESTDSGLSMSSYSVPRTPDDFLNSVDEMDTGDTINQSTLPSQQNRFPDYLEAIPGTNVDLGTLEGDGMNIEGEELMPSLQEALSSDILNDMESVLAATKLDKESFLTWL

Assays:
[1] = target: T1, claudin-2 (dog (endogenous in MDCK-II)) (UniProt Q95KM6); assay: co-IP; total MDCK-II cell lysate; immunoprecipitation with anti-claudin-2 antibody and blot with anti-YAP, or immunoprecipitation with anti-YAP antibody and blot with anti-claudin-2; endogenous proteins
T1 sequence: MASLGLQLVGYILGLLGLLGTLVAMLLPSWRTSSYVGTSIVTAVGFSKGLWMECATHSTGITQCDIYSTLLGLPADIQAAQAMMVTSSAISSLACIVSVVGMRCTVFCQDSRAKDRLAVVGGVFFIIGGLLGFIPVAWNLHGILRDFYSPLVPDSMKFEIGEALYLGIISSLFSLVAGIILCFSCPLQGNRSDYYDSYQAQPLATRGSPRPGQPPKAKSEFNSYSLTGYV

[2] = target: T2, full-length claudin-2 with C-terminal HA tag (Cldn2^FL/HA) (UniProt P57739); assay: co-IP; total lysate of MDCK-II cells transfected with Cldn2^FL/HA or Cldn2^ΔPDZ/HA; immunoprecipitation with anti-HA antibody, blot with anti-HA or anti-YAP
T2 sequence: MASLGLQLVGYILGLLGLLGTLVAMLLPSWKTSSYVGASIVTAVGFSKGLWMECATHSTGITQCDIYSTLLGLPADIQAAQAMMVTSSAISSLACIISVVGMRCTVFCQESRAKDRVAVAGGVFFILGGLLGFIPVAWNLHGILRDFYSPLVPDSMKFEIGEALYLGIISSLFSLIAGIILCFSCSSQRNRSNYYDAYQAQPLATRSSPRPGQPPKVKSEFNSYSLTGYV

[3] = target: T3, claudin-2 lacking the PDZ-binding motif, with C-terminal HA tag (Cldn2^ΔPDZ/HA) (UniProt P57739); assay: as above
T3 sequence: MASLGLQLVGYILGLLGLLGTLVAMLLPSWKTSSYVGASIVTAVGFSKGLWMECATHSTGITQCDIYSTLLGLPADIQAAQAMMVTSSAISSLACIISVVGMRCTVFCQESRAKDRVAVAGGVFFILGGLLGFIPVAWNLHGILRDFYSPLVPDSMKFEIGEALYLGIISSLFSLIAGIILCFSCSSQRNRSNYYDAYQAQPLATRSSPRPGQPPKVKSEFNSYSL

[4] = target: T2, full-length claudin-2 with C-terminal HA tag (Cldn2^FL/HA); assay: co-IP; total lysate of HK-2 cells transfected with Cldn2^HA/Full or Cldn2^ΔPDZ/HA; immunoprecipitation with anti-HA-tag antibody, blot with anti-HA and anti-YAP
[5] = target: T3, claudin-2 lacking the PDZ-binding motif, with C-terminal HA tag (Cldn2^ΔPDZ/HA); assay: as above
[6] = target: YES-associated protein (YAP) (dog (endogenous in MDCK-II)); assay: co-IP; total MDCK-II cell lysate; immunoprecipitation with anti-claudin-2 antibody and blot with anti-YAP, or immunoprecipitation with anti-YAP antibody and blot with anti-claudin-2; endogenous proteins

binding [1]: binds
binding [2]: binds
binding [3]: no binding
Molecule: YES-associated protein (YAP) (from UniProt A0A8C0NGY6 1-506)

binding [4]: binds
binding [5]: no binding
Molecule: YES-associated protein (YAP) (from UniProt P46937 1-504)

binding [6]: binds
B1: claudin-2 (protein, UniProt Q95KM6 1-230)
chain: T1 sequence
